According to article PMC4336329 (PLoS ONE, 2015):
Out of some 310,000 compounds screened, about 14,000 (4.5%) showed an effect of 50% or more. Effects have a minus sign here. The list shows a part of the results.

The molecules below were run against human ether-à-go-go-related gene (hERG) potassium channel (human, UniProt Q12809) (assay: primary screen, population patch clamp on CHO cells stably expressing hERG).
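Note: peak tail current of the secondary pulse compared with the same well before compound.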

human ether-à-go-go-related gene (hERG) potassium channel, sequence (Q12809 whole entry, looked up): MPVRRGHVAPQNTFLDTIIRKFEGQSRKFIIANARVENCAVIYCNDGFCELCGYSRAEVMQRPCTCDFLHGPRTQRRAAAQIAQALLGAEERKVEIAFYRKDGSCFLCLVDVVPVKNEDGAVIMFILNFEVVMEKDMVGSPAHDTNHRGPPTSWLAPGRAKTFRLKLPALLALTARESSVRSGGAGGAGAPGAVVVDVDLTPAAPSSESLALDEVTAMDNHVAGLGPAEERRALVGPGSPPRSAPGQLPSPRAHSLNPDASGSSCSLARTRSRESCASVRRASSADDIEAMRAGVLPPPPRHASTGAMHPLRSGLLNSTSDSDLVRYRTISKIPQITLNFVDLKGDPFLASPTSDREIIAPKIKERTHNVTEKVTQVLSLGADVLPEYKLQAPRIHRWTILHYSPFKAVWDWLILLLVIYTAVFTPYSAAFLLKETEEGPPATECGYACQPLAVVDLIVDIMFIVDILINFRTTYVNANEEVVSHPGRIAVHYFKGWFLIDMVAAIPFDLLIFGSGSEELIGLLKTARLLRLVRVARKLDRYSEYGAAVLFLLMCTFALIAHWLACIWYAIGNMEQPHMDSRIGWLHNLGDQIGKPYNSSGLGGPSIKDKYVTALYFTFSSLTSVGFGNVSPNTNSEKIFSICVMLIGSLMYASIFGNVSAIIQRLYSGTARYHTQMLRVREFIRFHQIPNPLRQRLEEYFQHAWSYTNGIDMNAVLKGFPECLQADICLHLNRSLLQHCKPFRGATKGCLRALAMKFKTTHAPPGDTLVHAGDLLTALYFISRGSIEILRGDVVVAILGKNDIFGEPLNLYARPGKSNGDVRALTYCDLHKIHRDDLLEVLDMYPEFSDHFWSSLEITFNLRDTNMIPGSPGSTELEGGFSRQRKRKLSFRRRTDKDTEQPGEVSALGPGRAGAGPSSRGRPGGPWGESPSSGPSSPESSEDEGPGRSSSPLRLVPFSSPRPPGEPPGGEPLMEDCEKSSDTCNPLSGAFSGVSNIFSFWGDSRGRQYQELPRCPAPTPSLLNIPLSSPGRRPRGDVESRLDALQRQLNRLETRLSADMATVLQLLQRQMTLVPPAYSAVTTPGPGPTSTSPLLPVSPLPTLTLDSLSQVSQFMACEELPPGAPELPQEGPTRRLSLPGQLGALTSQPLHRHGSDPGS

Row | SMILES | hERG current change (%, negative = inhibition) at 10uM [%]
1 | CCOc1ccc(C(=O)NCC(c2cccs2)N(C)C)cc1 (stereo not shown) | -41.8
2 | Cc1cc(NC(=O)Cn2ccc([N+](=O)[O-])n2)no1 | 15.4
3 | CCCc1nnc(NC(=O)Cn2c(=O)sc3ccccc32)s1 | 6.86
4 | Cn1cc(Br)c(C(=O)N/N=C/c2cc3ccccc3nc2Cl)n1 | 2.43
5 | O=C(CSc1ncccn1)NCc1cccc(Cl)c1 | 17.2
6 | CCCSc1nnc2nc3c(nn12)c1ccccc1n3C | -49.7
7 | COc1cc(-c2noc(C)c2C#Cc2ccccn2)cc(OC)c1OC | -29
8 | O=C(COC(=O)CCc1c[nH]c(=O)[nH]1)Nc1ccccc1Cl | -4.16
9 | CCC1SC(CC)C(=O)N(CC(=O)Nc2ccc3c(c2)OCO3)C1=O (stereo not shown) | -0.361
10 | CC(C)NC(=O)CCCN1C(=O)c2ccccc2Sc2ncccc21 | 26.1
11 | Cl.O=C(CCN1CCC(c2ccccc2)C1)c1ccc2c(c1)OCCO2 (stereo not shown) | -56
12 | O=C(CSc1ncnc2nc[nH]c12)N1CCN(c2ccc(Cl)cc2)CC1 | -32.8
13 | CCCCn1c(N)c(N(CC(C)C)C(=O)c2ccc(F)c(S(=O)(=O)N3CCOCC3)c2)c(=O)[nH]c1=O | -7.46
14 | CC(O)CNCc1ccc(Cl)cc1Cl.Cl (stereo not shown) | 12.3
15 | O=C(Nc1ccncc1)c1cncc(Br)c1 | 6.81
16 | O=C(/C=C/c1ccccc1)N/C(=C/c1ccccc1)C(=O)N1CCOCC1 | -58.8
17 | Cc1[nH]c2ccc(F)cc2c(=O)c1SC(F)(F)C(F)C(F)(F)F (stereo not shown) | -1.2
18 | S=C(c1ccc(-c2ccccc2)o1)N1CCCCC1 | 11.5
19 | CCn1ncc(Br)c1C(=O)Nc1cc(C)cc(C)c1 | 2.89
20 | Cn1c(N)c(C(=O)NCc2ccccc2Cl)sc1=S | 18
21 | O=C1CC(NCc2ccncc2)C(=O)N1c1ccc(Cl)cc1 (stereo not shown) | 1.27
22 | CCOC(=O)N1CCN(CC(=O)Nc2ccc(C)c(Br)c2)CC1.Cl | -16.1
23 | COc1ccc2cc(-c3ccccc3F)ncc2c1 | 3.84

Row | SMILES | hERG current change (%, negative = inhibition) at 10uM [%]
24 | COc1ccc(C(=O)N2CCC(C(=O)Nc3ccc(C)cc3)CC2)cc1 | -75.9
25 | O=C1CCC(C(=O)O)N1 (stereo not shown) | 7.34
26 | O=C(CCC1CCCN(Cc2cccc3c2OCO3)C1)NCc1ccc(F)c(F)c1 (stereo not shown) | -74.4
27 | CCOC(=O)CSc1cc(C(F)(F)F)nc(-c2ccccn2)n1 | -31.5
28 | Cc1c(Br)c([N+](=O)[O-])nn1CCCC(=O)Nc1c(C)n(C)n(-c2ccccc2)c1=O | 12
29 | CCOC(=O)CSc1cc(C)nc(N)n1 | -5.41
30 | COc1ccc(NC(=O)N2CCCC2C(=O)NC23CC4CC(CC(C4)C2)C3)cc1 (stereo not shown) | 12.7
31 | CN(C)S(=O)(=O)c1cccc(NC(=S)Nc2ccc(Cl)cc2Cl)c1 | -4.86
32 | Cc1ccc(C(=O)CSc2nnc(-c3cccs3)n2C)o1 | 5.76
33 | COCC(=O)OCC(=O)Nc1ccc(Cl)cc1[N+](=O)[O-] | 28
34 | O=C(NCCCc1ccc(F)cc1)C1CCC(=O)N(CC2CCCCC2)C1 (stereo not shown) | -33.5
35 | COC(=O)c1cc(NC(=O)c2cc3ccccc3o2)cc(C(=O)OC)c1 | 10.4
36 | C[C@H](NS(=O)(=O)c1ccccc1F)C(=O)OCC(=O)N1CCc2ccccc21 | -1.65
37 | Clc1nnc(N2CCCCC2)c2ccccc12 | 1.27
38 | OCC[C@@H]1C[C@@H](O)[C@H](O)[C@]2(CCc3ccccc3CO2)O1 | 21.6
39 | COc1cc(OC)c(-c2sc(Nc3ccccc3)n[n+]2-c2ccc(F)cc2)cc1OC.[Cl-] | -0.831
40 | CCOC(=O)C1CCN(CC(O)COCc2ccc3c(c2)OCO3)CC1.Cl (stereo not shown) | -46
41 | Cc1cc(NC(=O)Cc2cc(F)cc(F)c2)no1 | 23.8
42 | Cc1ccc2c(Cl)cc(Cl)c(OCC(=O)N3CCOCC3)c2n1 | -8.28
43 | CCN(c1cccc(C)c1)S(=O)(=O)c1cccc2nsnc12 | 10.6
44 | COc1ccc(S(=O)(=O)N2CCN3CCCC3C2)cc1 (stereo not shown) | 22.7
45 | O=C(N/C(=C\c1ccc(Br)cc1)C(=O)N1CCOCC1)c1ccc(Br)o1 | -67.1
46 | CC(C)(C)C(=O)NC(=S)NNC(=O)c1ccncc1 | 21.2

Row | SMILES | hERG current change (%, negative = inhibition) at 10uM [%]
47 | CCOC(=O)c1cc(-c2ccccc2)nn1CCC#N | 12
48 | CN(C)c1ccc(CNC(=O)CCNS(=O)(=O)c2cc(Br)cnc2N)cc1 | 12
49 | Cc1nc2ccsc2c(=O)n1-c1ccccc1Cl | 8.42
50 | CC(O)C(=O)N/N=C/c1cccc(Cl)c1Cl (stereo not shown) | 0.711
51 | Cc1cc(=O)oc(C)c1C(=O)Nc1ccc(N(C)C)cc1 | 9.17
52 | CCOC(=O)N1CCN(C(=O)Cc2c(C(=O)O)n(C)c3ccccc23)CC1 | 5.28
53 | CC(=O)c1cccc(NC(=O)Cn2cc3c(n2)CCCC3)c1 | 3.67
54 | c1cncc(-c2nc(-c3ccco3)cs2)c1 | -12.7
55 | O=S(=O)(Nc1cccc(S(=O)(=O)N2CCCC2)c1)c1cccc(Br)c1 | -15.2
56 | O=C(O)C(F)(F)F.O=C1C(Cc2ccccc2)Nc2ncnc(N3CCOCC3)c2N1Cc1ccc(Cl)cc1 (stereo not shown) | -18.1
57 | CCCOc1cccc(C(=O)N(Cc2ccco2)C2CCS(=O)(=O)C2)c1 (stereo not shown) | -2.12
58 | CCN1C(=NCC(C)C)N[C@@H](CCc2ccccc2)[C@H](C(=O)NCC(C)C)[C@H]1C | -16.2
59 | O=C1CNC(=O)/C(=C\c2ccc(F)cc2)N1 | 20.8
60 | CC(C)NC(=O)CN1CCN(Cc2nc(-c3cccs3)no2)CC1 | 19.9
61 | O=C(O)CN1C(=O)C2C3C=CC(C3)C2C1=O (stereo not shown) | -4.94
62 | Cn1c(=O)c2sccc2n2c(CCCC(=O)NC3CCN(Cc4ccccc4)CC3)nnc12 | 16.2
63 | COc1ccc(S(=O)(=O)N(CC(=O)N2CCN(c3ccccc3OC)CC2)c2ccccc2)cc1 | -36.5
64 | CCOc1cc(/C=N/NC(=O)c2ccncc2)ccc1OC(=O)c1ccccc1 | 13.7
65 | Cc1c(C(=O)O)sc2c1c(=O)n(Cc1ccccc1)c(=O)n2C | 23.2
66 | CC(=O)Oc1ccccc1/C=C/c1ccc2ccccc2[n+]1C.[I-] | 11.3
67 | CC(OC(=O)CCc1nc2ccccc2c(=O)[nH]1)C(=O)NCc1ccc2c(c1)OCO2 (stereo not shown) | 5.17
68 | CCOCC(O)CNc1ccccc1 (stereo not shown) | 9.24
69 | CN1C(=O)CC(C(=O)O)SC1=Nc1cc(Cl)c(O)c(Cl)c1 (stereo not shown) | 3.06

Row | SMILES | hERG current change (%, negative = inhibition) at 10uM [%]
70 | O=C(c1cc(-c2ccc(Br)cc2)nc2ccccc12)N1CCC1 | -44.4
71 | O=C(CC1S/C(=N/N=C/C=C/c2ccccc2)NC1=O)Nc1ccc(C(=O)O)cc1 (stereo not shown) | 18.7
72 | CC(=O)c1ccccc1NC(=O)COC(=O)c1cc(C)oc1C | 2.23
73 | O=C1CCC2CCCCC2(O)O1 (stereo not shown) | 2.29
74 | CC(C)(C)NC(=O)C(c1ccc(F)cc1)N(Cc1ccco1)C(=O)Cn1nnc(-c2cccs2)n1 (stereo not shown) | 12.7
75 | COc1ccc(CCNC(=O)c2ccc(NC(=O)CC3SC(N4CCCC4)=NC3=O)cc2)cc1 (stereo not shown) | -0.214
76 | O=C(COc1ccc(Cl)cc1Cl)N(C1CCCCC1)C1CCS(=O)(=O)C1 (stereo not shown) | 8.94
77 | COc1ccc([C@]2(C(C)C)ON(c3ccccc3C(F)(F)F)C2=O)cc1 | 9.73
78 | Cc1ccc(C)n1-c1ccc(C(=O)NCC2CCCO2)cc1 (stereo not shown) | -5.76
79 | COc1cccc(CCNC(=O)C2CCC(=O)N(Cc3cccc(OC)c3)C2)c1 (stereo not shown) | -0.0336
80 | CC1=C(C(=O)OCCOc2ccccc2)C(c2ccsc2)NC(=O)N1C (stereo not shown) | -15.3
81 | Cn1c(SCC(=O)N2CCOCC2)nc(O)cc1=O | 9.81
82 | COC(=O)c1sccc1NC(=O)Cc1ccc(OC)cc1 | -14.4
83 | O=C(Cn1cc2c(n1)CCCCC2)NCc1ccccc1 | -7.9
84 | CN(c1ccccc1C(=O)N1CCN(c2ccccc2F)CC1)S(=O)(=O)c1ccccc1 | -34.4
85 | CCOC(=O)[C@@H]1[C@H]2COc3ccc(Br)cc3[C@@H]2N2C(=O)N(c3cccc(F)c3)C(=O)[C@@]12C | 2.37
86 | C=CCNC(=O)/C=C/c1ccc(C(C)C)cc1 | -12.5
87 | O=C(CCc1nnc2ccc(NCc3ccco3)nn12)Nc1ccccn1 | 16.3
88 | COc1cc(C(C)=O)ccc1Oc1ncnc2c1cnn2-c1cccc(Cl)c1 | 11.7
89 | COc1cc2c(cc1OC)C(c1cc3ccc(C)cc3[nH]c1=O)N(C(=O)c1ccco1)CC2 (stereo not shown) | -32.6
90 | CC12CC3CC(C)(C1)CC(C(=O)NC1=NCCS1)(C3)C2 | -5.65
91 | S=c1[nH]nc(Cc2ccc(Br)cc2)n1/N=C/c1ccc(Cl)cc1 | 24.8
